Assays:
[1] = biological target: T1, mouse CTLA4-bound beads and mouse CD3-bound beads (Mus musculus, UniProt P09793+P22646); experiment: AlphaScreen crosslinking between mouse CTLA4-bound beads and mouse CD3-bound beads; assay type: binding; conditions: 0, 20, 100, 500 nmol/L antibody; biotinylated mouse CTLA4 donor beads, mouse CD3-acceptor beads; FIG. 7-2
T1 construct: biotin (biotinylated)
Method: First, the present inventors investigated, using Alpha technology from Perkin Elmer Inc., construction of a system that can evaluate crosslinking between mouse CD3-immobilized beads and mouse CTLA4-immobilized beads using the anti-mouse CTLA4/anti-mouse CD3 bispecific antibody (hUH02UL01/2C11-F760) purified and prepared by the method of Reference Example 3-1. More specifically, 100 nmol/L of biotinylated mouse CTLA4; 0, 20, 100, or 500 nmol/L of hUH02UL01/2C11-F760; 50 μg/mL of AlphaScreen™ Streptavidin-coated Donor Beads (PerkinElmer); and mouse CD3-acceptor beads prepared by conjugating 50 μg/mL of mouse CD3 to AlphaScreen™ Unconjugated Acceptor Beads (PerkinElmer) were used. Under this condition, it was thought that biotinylated mouse CTLA4 bound to AlphaScreen™ Streptavidin-coated Donor Beads and mouse CD3-acceptor beads may be crosslinked by hUH02UL01/2C11-F760 as shown in FIG. 7-1, and chemiluminescence may be emitted. Alpha 384 (PerkinElmer) was used as the plate, and the measurements were taken using Envision. All experiments were performed three times.

[2] = test system: mouse colorectal cancer cell line CT26.WT; experiment: In vivo drug efficacy, CT26.WT-transplanted mice, intratumoral administration; conditions: BALB/c mice, FIG. 8
Method: 1×10^6 mouse colorectal cancer cell line CT26.WT cells (ATCC) were subcutaneously transplanted into the right abdomen of BALB/c mice (Japan Charles River) to establish solid tumor. Ten days after the transplantation, hUH02hUL01-mFa55 was administered at a dose of 200 μg/mouse and hUH02UL01/2C11-F760 was administered at a dose of 100 μg/mouse, intratumorally (i.t.) (n=2 for each group).

[3] = test system: mouse CTLA4-expressing cell lines (CHO/mCTLA4); experiment: Cytotoxic activity (cell proliferation inhibition, xCELLigence) with mouse splenocytes as effector cells; assay type: cell-based; conditions: antibody 0.04, 0.4, 4, 40 μg/ml, 72 hours, FIG. 6
Method: Whether anti-mouse CTLA4/anti-mouse CD3 bispecific antibody (hUH02UL01/2C11-F760) purified and prepared by the method of Reference Example 3-1 exerts cytotoxic activity on mouse CTLA4-expressing cell lines was examined according to the method of Reference Example 12.
Regarding the anti-mouse CTLA4/anti-mouse CD3 bispecific antibody (hUH02UL01/2C11-F760), antibody concentration-dependent cytotoxic activity of the test antibody was measured using mouse splenocytes as effector cells, and by following the method described below.
Ten mL of 10% FBS/RPMI was added to the spleen excised from a BALB/c mouse. The spleen was sliced into small pieces and passed through a cell strainer. After centrifugation (at 2,150 rpm for ten minutes at room temperature), a hemolysis procedure was performed using a Mouse Erythrocyte Lysing Kit (R&D Systems). After washing once with 10% FBS/RPMI, the cells were suspended in 10% FBS/RPMI at a cell density of 6×10^6 cells/ml. The cell suspension was used as the mouse splenocyte solution in the subsequent experiments.
Cytotoxic activity was evaluated by cell proliferation inhibition rate using the xCELLigence® Real-Time Cell Analyzer (Roche Diagnostics K.K.). CHO/mCTLA4 which is CHO forced to express mouse CTLA4 was used as the target cells. […]

mouse CTLA4 = mouse CTLA4 (Mus musculus, UniProt P09793); experiment: Biacore T200 antigen binding of bispecific antibody; conditions: analyte mouse CTLA4, 37° C., HBS-EP+ pH7.4
Sequence of mouse CTLA4 (P09793 36-223): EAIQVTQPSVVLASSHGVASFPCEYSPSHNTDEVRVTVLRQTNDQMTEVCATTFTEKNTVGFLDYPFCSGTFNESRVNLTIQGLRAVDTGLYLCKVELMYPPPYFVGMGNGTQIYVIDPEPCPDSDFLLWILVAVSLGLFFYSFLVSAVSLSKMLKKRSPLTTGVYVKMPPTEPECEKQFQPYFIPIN
Method: (§1) Anti-mouse CTLA4/anti-mouse CD3 bispecific antibodies (hUH02UL01/2C11-F760) purified and prepared by the method of Reference Example 3-1 were analyzed for their antigen-antibody reactions with each antigen (mCTLA4 and mCD3) using Biacore™ T200 (GE Healthcare). The running buffer used was HBS-EP+ at pH7.4, and measurements were taken at 37° C. Protein A/G was immobilized onto a Sensor Chip CM4 by amine coupling. hUH02UL01/2C11-F760 was captured onto the sensor chip, and then the antigen (mouse CTLA4 or mouse CD3) was allowed to interact as an analyte (for 120 seconds for mouse CTLA4 and for 90 seconds for mouse CD3), and changes in the bound amount were observed. The running buffer was used for dilution of hUH02UL01/2C11-F760. The measurement results were analyzed by curve fitting using the Biacore™ T200 Evaluation Software (GE Healthcare) to calculate the association rate constants ka (l/Ms) and the dissociation rate constants kd (l/s). From those values, the dissociation constants KD (M) were determined.

mouse CD3 = biological target: T2, mouse CD3 (Mus musculus, UniProt P22646); experiment: as above; conditions: analyte mouse CD3, 37° C., HBS-EP+ pH7.4
T2 sequence (P22646 22-108 limits assumed): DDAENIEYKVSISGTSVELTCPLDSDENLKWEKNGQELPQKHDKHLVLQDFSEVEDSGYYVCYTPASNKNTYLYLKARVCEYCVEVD
Method: as §1

[4] = biological target: T3, mouse CTLA4/mouse CD3-bound beads and mouse CD3-bound beads (Mus musculus, UniProt P09793+P22646); experiment: AlphaScreen crosslinking between mouse CTLA4/mouse CD3-bound beads and mouse CD3-bound beads; assay type: binding; conditions: 100 nmol/L antibody; donor beads with biotinylated mouse CTLA4 and mouse CD3, mouse CD3-acceptor beads; FIG. 7-3
T3 construct: biotin (biotinylated); biotin (on the donor-bead portion only)
Method: Next, 100 nmol/L of biotinylated mouse CTLA4 and 10 nmol/L of biotinylated mouse CD3 were added to AlphaScreen™ Streptavidin-coated Donor Beads (PerkinElmer) to produce donor beads that mimic regulatory T cells expressing CTLA4 and CD3. Whether addition of 100 nmol/L of hUH02UL01/2C11-F760 can cause crosslinking between donor beads and acceptor beads in the presence of 50 μg/mL mouse CD3-acceptor beads (acceptor beads mimicking effector T cells) was examined. The condition in which hUH02UL01/2C11-F760 is not added to 100 nmol/L of biotinylated mouse CTLA4; 50 μg/mL of AlphaScreen™ Streptavidin-coated Donor Beads (PerkinElmer); and 50 μg/mL of mouse CD3-acceptor beads was used as the control in which crosslinking between each of the beads are not caused. All experiments were performed three times.

[5] = test system: mouse colorectal cancer cell line CT26.WT; experiment: In vivo drug efficacy, CT26.WT-transplanted mice, intratumoral versus intravenous administration; conditions: BALB/c mice, 100 μg/mouse i.t. or i.v., eight days after transplantation; FIG. 9
Method: 1×10^6 CT26.WT cells (ATCC) were subcutaneously transplanted into the right abdomen of BALB/c mice (Japan Charles River) to establish solid tumor. Eight days after the transplantation, hUH02UL01/2C11-F760 was administered at a dose of 100 μg/mouse intratumorally (i.t.) or intravenously (i.v.) (n=5 for each group).

ka (mouse CTLA4): 430000 M⁻¹ s⁻¹
kd (mouse CTLA4): 0.00053 s⁻¹
ka (mouse CD3): 61600 M⁻¹ s⁻¹
kd (mouse CD3): 0.0712 s⁻¹
B1: hUH02UL01/2C11-F760: anti-mouse CTLA4/anti-mouse CD3 bispecific antibody, human IgG1 constant regions F760nN17/F760nP17 with reduced Fcγ receptor binding (antibody)
heavy 1: QVQLQESGPGLVKPSETLSLTCTVSGYSISSGYGWNWIRQPPGKGLEWIGFIYYEGSTYYNPSIKSRISITRDTSKNQFFLQVNSVTTEDTATYYCARQTGYFDYWGQGTLVTVSSASTKGPSVFPLAPSSKSTSGGTAALGCLVKDYFPEPVTVSWNSGALTSGVHTFPAVLQSSGLYSLSSVVTVPSSSLGTQTYICNVNHKPSNTKVDKKVEPKSCDKTHTCPPCPAPELRGGPKVFLFPPKPKDTLMISRTPEVTCVVVDVSHEDPEVKFNWYVDGVEVHNAKTKPREEQYASTYRVVSVLTVLHQDWLNGKEYKCKVSNKALPAPIEKTISKAKGQPREPQVYTLPPSRDELTKNQVSLTCLVKGFYPSDIAVEWESNGQPENNYKTTPPYLDSDGSFFLYSKLTVDKSRWQQGNVFSCSVMHEALHNHYTQESLSLSP
light 1: DIVMTQSPDSLAVSLGERATINCKSSQSLFNSNAKTNYLNWYQQKPGQPPKLLIYYASTRHTGVPDRFSGSGSGTDFTLTISSLQAEDVAVYYCQQWYDYPYTFGAGTKVEIKRTVAAPSVFIFPPSDEQLKSGTASVVCLLNNFYPREAKVQWKVDNALQSGNSQESVTEQDSKDSTYSLSSTLTLSKADYEKHKVYACEVTHQGLSSPVTKSFNRGEC
heavy 2: EVQLVESGGGLVQPGKSLKLSCEASGFTFSGYGMHWVRQAPGRGLESVAYITSSSINIKYADAVKGRFTVSRDNAKNLLFLQMNILKSEDTAMYYCARFDWDKNYWGQGTMVTVSSASTKGPSVFPLAPSSKSTSGGTAALGCLVKDYFPEPVTVSWNSGALTSGVHTFPAVLQSSGLYSLSSVVTVPSSSLGTQTYICNVNHKPSNTKVDKKVEPKSCDKTHTCPPCPAPELRGGPKVFLFPPKPKDTLMISRTPEVTCVVVDVSHEDPEVKFNWYVDGVEVHNAKTKPREEQYASTYRVVSVLTVLHQDWLNGKEYKCKVSNKALPAPIEKTISKAKGQPREPQVYTLPPSRKELTKNQVSLTCLVKGFYPSDIAVEWESNGQPENNYKTTPPYLDSDGSFFLYSKLTVDKSRWQQGNVFSCSVMHEALHNHYTQKSLSLSP
light 2: DIQMTQSPSSLPASLGDRVTINCQASQDISNYLNWYQQKPGKAPKLLIYYTNKLADGVPSRFSGSGSGRDSSFTISSLESEDIGSYYCQQYYNYPWTFGPGTKLEIKRTVAAPSVFIFPPSDEQLKSGTASVVCLLNNFYPREAKVQWKVDNALQSGNSQESVTEQDSKDSTYSLSSTLTLSKADYEKHKVYACEVTHQGLSSPVTKSFNRGEC
crosslinking between beads (chemiluminescence) [1]: concentration-dependent crosslinking between beads was observed
antitumor effects (tumor volume) ([2]; 100 μg/mouse i.t., ten days after transplantation): remarkable antitumor effects
antitumor effects in comparison to hUH02hUL01-mFa55 ([2]; i.t., hUH02UL01/2C11-F760 100 μg/mouse vs hUH02hUL01-mFa55 200 μg/mouse): stronger antitumor effects
cytotoxic activity (cell proliferation inhibition rate) [3]: cytotoxic activity in an antibody concentration-dependent manner
crosslinking between donor beads and acceptor beads [4]: crosslinks the donor bead and acceptor bead
antitumor effects, intratumoral versus intravenous administration [5]: equivalent antitumor effects in both intratumoral and intravenous administration

Reference: patent US11660340B2, “Combination therapy using T cell redirection antigen binding molecule against cell having immunosuppressing function” (CHUGAI SEIYAKU KABUSHIKI KAISHA, priority 2015, dated 2023)
